# Test results as given in the supplement of paper PMC3334620.
# In all, about 33,000 sequences were measured (“E-score (-0.5 to 0.5)”: median about -0.035, highest 2% from about 0.35 on). The list shows a part of the results.
# Target: T1, Pdr3 (UniProt P33200)
# T1 sequence: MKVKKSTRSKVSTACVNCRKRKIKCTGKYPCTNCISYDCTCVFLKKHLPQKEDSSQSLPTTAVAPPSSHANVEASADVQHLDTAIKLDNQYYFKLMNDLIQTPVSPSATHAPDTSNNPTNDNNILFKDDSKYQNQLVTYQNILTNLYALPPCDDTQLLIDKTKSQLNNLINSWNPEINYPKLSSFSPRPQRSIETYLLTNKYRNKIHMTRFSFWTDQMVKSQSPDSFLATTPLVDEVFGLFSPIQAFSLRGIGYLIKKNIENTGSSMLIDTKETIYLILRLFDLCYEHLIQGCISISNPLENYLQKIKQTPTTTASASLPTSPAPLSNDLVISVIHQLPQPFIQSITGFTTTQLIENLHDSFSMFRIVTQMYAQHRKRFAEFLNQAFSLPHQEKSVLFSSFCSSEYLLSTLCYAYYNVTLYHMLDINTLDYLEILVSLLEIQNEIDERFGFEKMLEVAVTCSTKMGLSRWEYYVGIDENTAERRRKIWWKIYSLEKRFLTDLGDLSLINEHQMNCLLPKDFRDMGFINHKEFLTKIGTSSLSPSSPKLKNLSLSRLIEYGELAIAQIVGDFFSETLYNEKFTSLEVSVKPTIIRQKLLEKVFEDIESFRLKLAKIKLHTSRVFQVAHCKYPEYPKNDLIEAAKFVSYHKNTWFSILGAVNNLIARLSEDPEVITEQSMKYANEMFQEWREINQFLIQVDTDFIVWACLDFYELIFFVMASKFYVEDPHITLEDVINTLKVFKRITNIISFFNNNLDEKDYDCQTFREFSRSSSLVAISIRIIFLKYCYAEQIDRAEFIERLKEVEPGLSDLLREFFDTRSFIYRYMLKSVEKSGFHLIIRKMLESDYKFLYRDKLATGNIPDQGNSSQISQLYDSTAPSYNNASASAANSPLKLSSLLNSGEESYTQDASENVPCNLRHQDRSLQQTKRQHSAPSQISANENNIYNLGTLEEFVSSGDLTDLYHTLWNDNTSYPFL
# Assay: PBM E-score (8-mer binding enrichment) (E-score (-0.5 to 0.5)); higher = stronger / more preferred TF binding; most listed sequences are background and not binding sites
# Settings: protein concentration: 200 nM; construct: GST-full length
# Outline: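 Yeast transcription factors carrying a GST tag, as full-length proteins or DNA-binding domains, were produced by PURExpress in vitro transcription/translation. About 100-200 nM protein was applied to universal all-10-mer Agilent arrays, double-stranded by primer extension on fresh or once-stripped slides. Bound protein was detected with fluorescent anti-GST, and scans were normalised with masliner. The Universal PBM Analysis Suite gave each ungapped eight-base word, pooled with its reverse complement, an E-score, a modified Wilcoxon-Mann-Whitney statistic.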
row,Sequence,PBM E-score
1,CCCCGCTC,0.0129
2,ACGGTCCA,0.0173
3,CGATCAAC,-0.143
4,GCTATATA,-0.0719
5,GTCTGCAC,-0.141
6,AGCTTAAG,-0.0452
7,AAAGAGCC,-0.113
8,ATGGCCTG,0.0418
9,CTTTGCTC,-0.0557
10,TAGCTGAA,-0.0744
11,GGAGACTA,-0.0407
12,ATTTCATG,-0.143
13,GATATGGC,-0.0279
14,CCGGGAGG,0.334
15,CGAAATGA,0.188
16,CAGAAGGC,0.0006
17,CTGTTGGA,-0.131
18,AGACAGAA,-0.122
19,ATTGAGTA,0.0495
20,GGAAGAGA,0.207
21,CCGCCAGC,0.105
22,GAACGTCA,-0.175

row,Sequence,PBM E-score
1,CGGTATTA,0.248
2,ACAGATGG,-0.0979
3,AGGATGAC,-0.298
4,ATGGTCGA,-0.0615
5,ACACGTGT,-0.222
6,AGAGTCAT,-0.255
7,GCGCGTTA,0.0926
8,AGCGTCAA,-0.111
9,ATTGACGC,-0.11
10,ACTTCGAA,-0.241
11,ACCCCCAC,-0.319
12,TAAGGGGA,-0.12
13,ATAACAAT,-0.054
14,ATCATCGG,0.276
15,AAGGACCA,-0.0737
16,ATATCGCA,-0.0575
17,AGCGGGAT,0.237
18,CAGTATCC,0.0371
19,CGGATAAC,0.333
20,GAACCGAC,0.167
21,GGGCGCAC,0.0538
22,CTCCCTAC,-0.251

row,Sequence,PBM E-score
1,CGTGGTCA,-0.0865
2,ATAAAATG,0.0593
3,ACTCTGGC,-0.0062
4,AATATTAC,0.134
5,CGTTCGGC,0.171
6,CGTAACTA,-0.12
7,AAAAGAGC,-0.248
8,AGTATATC,-0.034
9,ATGTAGGA,-0.158
10,ATCGACAT,0.0562
11,CGGTTTTC,0.188
12,ACCTCATC,0.00577
13,CGGGCTTA,0.0629
14,CGGACCCG,0.392
15,GCTGCACC,0.0174
16,CGCATTAC,0.135
17,CTACCATC,-0.0753
18,AGAGCTTA,-0.0903
19,ATCTCATA,-0.113
20,CCCGGAAC,0.467
21,AACTGTAA,0.0127
22,GAGGCCGC,-0.0141

row,Sequence,PBM E-score
1,AAGAAACG,0.0474
2,TCAGTCGA,0.0772
3,CCTGAGAA,-0.204
4,CAGAGCGG,0.185
5,CCTGCCTA,-0.152
6,AGTTGTTG,-0.0777
7,ATATACTA,0.179
8,CCCGTGTA,0.113
9,GAAGGCGA,0.0906
10,ATCATACC,0.0809
11,GGCTACCC,-0.18
12,GGATCCGA,0.399
13,GACATGTC,0.0183
14,ATTATCTA,-0.0477
15,ACCCGGAC,0.317
16,AAAAAACA,0.0589
17,GTTATGCA,-0.223
18,AGGTATTC,-0.0952
19,AATACGCA,-0.128
20,ACGCGGGC,0.17
